The other results are listed elsewhere or left out. Sequences were assembled here from the parent chain. Values near 0.05 are background.
B1: TEV protease; numbered along this chain (parent)
chain: MGESLFKGPRDYNPISSSICHLTNESDGHTTSLYGIGFGPFIITNKHLFRRNNGTLVVQSLHGVFKVKDTTTLQQHLVDGRDMIIIRMPKDFPPFPQKLKFREPQREERICLVTTNFQTKSMSSMVSDTSCTFPSGDGIFWKHWIQTKDGQCGSPLVSTRDGFIVGIHSASNFTNTNNYFTSVPKNFMELLTNQEAQQWVSGWRLNADSVLWGGHKVFMVKPEEPFQPVKEATQL

Variants of: B1
Assay: raw area under fraction-flipped curve 0-4 h after induction (AUC4h, not background-subtracted), DNA-recorder readout of cleavage of the substrate (dimensionless); higher = more cleavage of the substrate by the protease variant
Settings: temperature: 34 °C; time window: 0-4 h after rhamnose induction
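Note: Bxb1 expression induced with 0.2% (w/v) L-rhamnose at OD600 near 0.5, cultures sampled hourly, flipped fraction per protease–substrate barcode pair counted by paired-end Illumina sequencing.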

| Variant | area with substrate ENLYGQS | area with substrate ENLYIQS | area with substrate ENLYMQS | area with substrate ENLYQQS | area with substrate ENLYSQS | area with substrate ENLYWQS | area with substrate ENLYEQS | area with substrate ENLYHQS | area with substrate ENLYKQS | area with substrate ENLYNQS |
| --- | --- | --- | --- | --- | --- | --- | --- | --- | --- | --- |
| G8C | 0.0502 | 0.0916 | 0.0855 | 0.0615 | 0.0696 | 0.0746 | – | – | – | – |
| G8M | 0.0669 | 0.0933 | – | – | 0.0679 | 0.0819 | 0.0767 | 0.0736 | 0.0398 | 0.0438 |
| G8I | – | – | 0.083 | – | 0.0845 | – | 0.0737 | – | 0.0601 | 0.0744 |
| G8W | – | – | – | – | – | 0.0729 | – | – | 0.0671 | 0.0521 |
| E224I | 0.0664 | – | 0.0838 | 0.0712 | – | – | 0.0597 | 0.0593 | 0.0418 | 0.0779 |
| V64M | 0.0631 | 0.118 | 0.104 | 0.0589 | 0.0702 | 0.0952 | 0.0519 | 0.0673 | 0.0881 | 0.0709 |
| H62K | 0.0545 | – | 0.0909 | – | – | 0.0738 | 0.0694 | 0.077 | – | 0.0722 |
| L5R | – | 0.131 | – | 0.0546 | – | – | 0.075 | 0.06 | 0.0659 | – |
| N193S | 0.0644 | 0.112 | – | – | 0.0683 | – | – | – | – | – |
| M88F | 0.0608 | – | – | – | 0.0801 | 0.0605 | 0.066 | 0.0558 | 0.0814 | 0.0613 |
| M219F | 0.0794 | 0.11 | 0.0698 | 0.0679 | – | 0.0926 | 0.0745 | 0.0683 | 0.0268 | 0.0909 |
| F226D | 0.067 | – | 0.0899 | – | – | – | 0.0684 | – | 0.0414 | 0.0667 |
| N186Y | 0.066 | – | – | – | – | 0.0794 | – | 0.0615 | 0.0769 | – |
| D149R | 0.0665 | – | 0.0767 | – | – | – | – | – | 0.0642 | 0.0501 |
| T114H | 0.0653 | 0.0956 | 0.0684 | – | 0.0932 | 0.0769 | 0.0618 | 0.0821 | – | – |
| I167D | 0.0529 | – | 0.0646 | 0.0372 | 0.0241 | – | 0.0552 | 0.0511 | 0.0502 | 0.0582 |
| I167E | – | – | 0.0543 | – | 0.0575 | – | 0.0376 | – | 0.0472 | – |
| F218R | 0.0716 | 0.0885 | – | – | – | – | 0.0701 | 0.0672 | 0.0643 | – |
| D208H | 0.0722 | 0.0707 | 0.057 | 0.0651 | – | – | 0.0601 | 0.0544 | 0.0539 | 0.0693 |
| D208R | – | 0.0656 | 0.0612 | 0.0663 | – | 0.0663 | 0.0542 | 0.0561 | 0.0665 | 0.0145 |

| Variant | area with substrate ENLYGQS | area with substrate ENLYIQS | area with substrate ENLYMQS | area with substrate ENLYQQS | area with substrate ENLYSQS | area with substrate ENLYWQS | area with substrate ENLYEQS | area with substrate ENLYHQS | area with substrate ENLYKQS | area with substrate ENLYNQS |
| --- | --- | --- | --- | --- | --- | --- | --- | --- | --- | --- |
| D208I | 0.0757 | 0.0734 | 0.0715 | 0.0727 | 0.0594 | 0.0683 | 0.061 | 0.0668 | 0.0428 | 0.0335 |
| D208C | 0.0655 | 0.0722 | 0.0627 | 0.0577 | – | 0.0828 | 0.0258 | 0.0691 | 0.0694 | 0.0499 |
| D208L | – | – | – | 0.0506 | 0.0673 | – | – | 0.0638 | 0.0672 | 0.0847 |
| D208M | 0.0697 | 0.0778 | 0.0578 | 0.0652 | 0.0615 | – | 0.0541 | 0.0711 | 0.0686 | 0.0607 |
| P104A | 0.0606 | 0.119 | – | 0.068 | 0.0782 | 0.0863 | – | 0.0563 | – | 0.0645 |
| C152Y | 0.0548 | 0.0564 | – | 0.0575 | 0.0717 | – | – | 0.0815 | 0.0798 | 0.054 |
| C152Q | – | – | – | – | – | – | 0.0609 | 0.0704 | 0.043 | – |
| L235H | 0.0675 | 0.142 | 0.0747 | 0.0502 | – | – | – | 0.0694 | 0.0565 | – |
| H215A | – | – | 0.0573 | 0.0603 | 0.0502 | 0.0586 | – | – | – | – |
| A232Y | 0.0552 | 0.15 | – | 0.07 | – | 0.0581 | 0.0579 | 0.0856 | – | 0.0723 |
| Q197Y | 0.0618 | – | – | – | 0.0687 | – | – | 0.0662 | 0.0712 | 0.0517 |
| V58P | 0.0198 | – | 0.0289 | – | 0.0157 | 0.0206 | – | – | 0.0233 | – |
| Y34L | 0.0793 | – | 0.0642 | – | – | – | 0.0578 | – | – | – |
| K46N | 0.0608 | – | – | – | 0.0879 | – | – | 0.0612 | 0.0568 | 0.0625 |
| S121T | 0.058 | – | 0.0921 | – | – | – | – | 0.095 | 0.0579 | 0.0756 |
| E189K | – | – | 0.0625 | 0.0504 | – | – | 0.0664 | 0.0686 | – | – |
| P184K | 0.0636 | 0.0904 | 0.0674 | – | 0.0563 | – | 0.0571 | – | 0.0746 | 0.0643 |
| P184R | – | 0.0714 | – | – | – | – | 0.0661 | – | 0.0459 | – |
| T119E | – | – | 0.0661 | 0.0622 | 0.11 | – | – | 0.0511 | 0.0569 | 0.056 |

Same assay, conditions: temperature: 34 °C; time window: 0-4 h after rhamnose induction

| Variant | area with substrate ENLYRQS | area with substrate ENLYPQS | area with substrate ENLYTQS | area with substrate ENLYLQS | area with substrate ENLYVQS | area with substrate ENLYDQS | area with substrate ENLYYQS |
| --- | --- | --- | --- | --- | --- | --- | --- |
| G8M | 0.0217 | – | – | – | – | – | – |
| G8W | – | 0.0796 | 0.0687 | – | – | – | – |
| E224I | 0.0545 | – | 0.0807 | 0.0664 | – | – | – |
| V64H | – | – | 0.0869 | – | – | – | – |
| V64M | 0.0659 | 0.0699 | 0.0812 | 0.0049 | 0.088 | – | – |
| H62K | – | 0.0722 | – | – | 0.117 | – | – |
| L5R | – | 0.0648 | – | 0.0836 | 0.148 | – | – |
| N193S | 0.0563 | – | – | 0.0831 | – | – | – |
| M88F | – | 0.0674 | – | – | 0.0913 | – | – |
| M219F | 0.0596 | 0.0829 | – | – | – | 0.0797 | 0.0704 |
| F226D | 0.0627 | 0.0642 | – | – | 0.11 | – | – |
| N186Y | – | – | – | – | – | – | 0.0877 |
| I167D | 0.0511 | 0.0643 | 0.0505 | – | 0.0403 | 0.0458 | – |
| I167E | – | 0.0618 | – | – | – | 0.0517 | 0.0634 |
| F218R | – | – | – | – | 0.0704 | – | – |
| D208H | – | – | – | – | – | 0.0644 | – |
| D208R | – | 0.0729 | 0.0602 | 0.0814 | 0.1 | 0.0668 | 0.0581 |

| Variant | area with substrate ENLYRQS | area with substrate ENLYPQS | area with substrate ENLYTQS | area with substrate ENLYLQS | area with substrate ENLYVQS | area with substrate ENLYDQS | area with substrate ENLYYQS |
| --- | --- | --- | --- | --- | --- | --- | --- |
| D208I | 0.0495 | 0.0605 | – | – | 0.0735 | 0.0604 | 0.0517 |
| D208C | 0.0614 | – | – | – | – | – | – |
| D208L | – | 0.0205 | – | – | – | – | 0.047 |
| D208M | – | 0.0718 | 0.0688 | 0.0696 | 0.0678 | 0.0612 | – |
| P104A | 0.0616 | 0.0673 | – | – | 0.113 | – | – |
| C152Y | – | – | – | – | 0.0563 | – | – |
| C152Q | 0.0556 | – | – | – | – | – | – |
| L235H | – | 0.064 | – | – | 0.0742 | 0.0653 | 0.0612 |
| H215A | 0.0647 | – | 0.0691 | – | 0.0633 | 0.0728 | – |
| A232Y | 0.0525 | 0.0771 | 0.0777 | – | – | – | – |
| Y34L | 0.0555 | 0.0564 | 0.0617 | 0.0534 | 0.11 | – | – |
| K46N | 0.0739 | – | – | – | – | – | 0.0701 |
| S121T | – | – | – | – | – | – | 0.0691 |
| E189K | 0.0628 | – | 0.0832 | – | – | – | 0.0449 |
| P184K | 0.0608 | – | – | – | 0.0645 | 0.0579 | – |
| P184R | 0.0462 | 0.0346 | 0.063 | – | – | 0.0529 | – |
| T119E | 0.0783 | 0.0864 | – | – | – | – | 0.0635 |

Reference: the supplement of paper PMC12217912
